Laboratory results reported in the supplement of paper PMC4967469.
Lines with a small IC50 respond at low doses; a limit (>, <) means that the fit lies beyond the doses tested. The AUC spans the tested range (256-fold, ending at the top dose) of the same fit; it is 1 without any effect and falls as sensitivity rises. For some assays here: Where the top dose is marked as inferred, it was calculated from the reported fits. For some assays here: Drugs with an entry number were screened twice under separate entries, and the two screens often disagree.

Legend:
Test in all cases: Viability of human cancer cell lines after 72 h of drug (GDSC screen)
[1] = compound: CC(C)c1ccccc1Cc1cc(C(=O)Nc2ccc(S(=O)(=O)c3ccccc3C(C)(C)C)cc2)c(O)c(O)c1O [TW-37]; conditions: top dose 5 µM
Protocol: (§1)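 Human cancer cell lines in 384-well plates, medium with 10% serum, drug for 72 h over a 256-fold dose range (nine 2-fold or five 4-fold steps up to the top dose). Adherent lines were fixed and stained with the nucleic acid dye Syto60, suspension lines read with resazurin; signal relative to control wells, capped at 0 and 100%. One two-parameter sigmoid per drug and line, fitted in a mixed model over all curves with the slope shared within a line.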

[2] = compound: Cc1cn(-c2cc(NC(=O)c3ccc(C)c(Nc4nccc(-c5cccnc5)n4)c3)cc(C(F)(F)F)c2)cn1 [Nilotinib]; conditions: top dose 2 µM
Protocol: as §1

[3] = compound: O=S(=O)(c1ccccc1)N(CC(F)(F)F)c1ccc(C(O)(C(F)(F)F)C(F)(F)F)cc1 [T0901317]; conditions: top dose 10.24 µM; top dose inferred
Protocol: as §1

[4] = compound: CCNC(=O)c1noc(-c2cc(C(C)C)c(O)cc2O)c1-c1ccc(CN2CCOCC2)cc1 [AUY922]; conditions: top dose 0.256 µM; top dose inferred
Protocol: as §1

[5] = compound: CC(O)(CS(=O)(=O)c1ccc(F)cc1)C(=O)Nc1ccc(C#N)c(C(F)(F)F)c1 [Bicalutamide]; conditions: top dose inferred
Protocol: as §1

[6] = compound: Nc1ccn([C@@H]2O[C@H](CO)[C@@H](O)C2(F)F)c(=O)n1 [Gemcitabine]; conditions: top dose 1.024 µM
Protocol: as §1

[7] = compound: C/C(O)=C(\C#N)C(=O)Nc1cc(Br)ccc1Br [LFM-A13]; conditions: top dose 16 µM; top dose inferred
Protocol: as §1

[8] = compound: Cc1ccc(Nc2cc(-c3cccc(N4C(=O)c5ccccc5C4=O)c3)ncn2)cc1NS(C)(=O)=O [KIN001-270]; conditions: top dose 20 µM; top dose inferred
Protocol: as §1

[9] = compound: S=C(NCc1ccc2c(c1)OCO2)N1CCN(c2ncnc3c2oc2ccccc23)CC1 [MP470]; conditions: top dose 20 µM; top dose inferred
Protocol: as §1

[10] = top dose 1.024 µM, screen: GDSC drug entry 150
[11] = top dose 10 µM, screen: GDSC drug entry 1502

| Cell Line | AUC [1] | IC50 [1] [nM] | AUC [2] | IC50 [2] [nM] | AUC [3] | IC50 [3] [nM] | AUC [4] | IC50 [4] [nM] | AUC [5, 10] | IC50 [5, 10] [nM] | AUC [5, 11] | IC50 [5, 11] [nM] | AUC [6] | IC50 [6] [nM] | AUC [7] | IC50 [7] [nM] | AUC [8] | IC50 [8] [nM] | AUC [9] | IC50 [9] [nM] |
| --- | --- | --- | --- | --- | --- | --- | --- | --- | --- | --- | --- | --- | --- | --- | --- | --- | --- | --- | --- | --- |
| CHSA8926 (chondrosarcoma, adherent) | 0.589 | 607 | 0.97 | > 2000 | 0.967 | > 10200 | 0.978 | > 256 | 0.966 | > 1020 | 0.961 | > 10000 | 0.98 | > 1020 | 0.979 | > 16000 | 0.98 | > 20000 | 0.969 | > 20000 |
| COLO-205 (large intestine, suspension) | 0.952 | > 5000 | 0.97 | > 2000 | 0.98 | > 10200 | 0.688 | 53.2 | 0.978 | > 1020 | 0.985 | > 10000 | 0.836 | 663 | 0.931 | > 16000 | 0.988 | > 20000 | 0.947 | > 20000 |
| COLO-678 (large intestine, semi-adherent) | 0.791 | 3010 | 0.981 | > 2000 | 0.982 | > 10200 | 0.802 | 171 | 0.984 | > 1020 | 0.98 | > 10000 | 0.955 | > 1020 | 0.969 | > 16000 | 0.985 | > 20000 | 0.985 | > 20000 |
| COLO-679 (melanoma, adherent) | 0.488 | 289 | 0.929 | > 2000 | 0.982 | > 10200 | 0.579 | 27.1 | 0.974 | > 1020 | 0.967 | > 10000 | 0.268 | 12.8 | 0.91 | > 16000 | 0.976 | > 20000 | 0.954 | > 20000 |
| COLO-680N (oesophagus, adherent) | 0.743 | 1790 | 0.985 | > 2000 | 0.986 | > 10200 | 0.577 | 27 | 0.983 | > 1020 | 0.983 | > 10000 | 0.464 | 50.3 | 0.969 | > 16000 | 0.982 | > 20000 | 0.986 | > 20000 |
| CP50-MEL-B (melanoma, adherent) | 0.293 | 81.9 | 0.975 | > 2000 | 0.975 | > 10200 | 0.673 | 48.2 | 0.983 | > 1020 | 0.98 | > 10000 | 0.958 | > 1020 | 0.986 | > 16000 | 0.98 | > 20000 | 0.789 | 8700 |
| CS1 (bone, adherent) | 0.496 | 305 | 0.984 | > 2000 | 0.983 | > 10200 | 0.581 | 27.4 | 0.98 | > 1020 | 0.979 | > 10000 | 0.59 | 117 | 0.947 | > 16000 | 0.923 | > 20000 | 0.528 | 1510 |
| Ca9-22 (head and neck, adherent) | 0.247 | 62.3 | 0.981 | > 2000 | 0.971 | > 10200 | 0.479 | 14.1 | 0.989 | > 1020 | 0.982 | > 10000 | 0.203 | 9.27 | 0.973 | > 16000 | 0.985 | > 20000 | 0.948 | > 20000 |
| Ca-Ski (cervix, adherent) | 0.518 | 352 | 0.938 | > 2000 | 0.967 | > 10200 | 0.592 | 29.4 | 0.982 | > 1020 | 0.964 | > 10000 | 0.258 | 11.8 | 0.945 | > 16000 | 0.959 | > 20000 | 0.841 | 16400 |
| CaR-1 (large intestine, adherent) | 0.843 | > 5000 | 0.969 | > 2000 | 0.967 | > 10200 | 0.812 | 236 | 0.978 | > 1020 | 0.711 | 3390 | 0.786 | 707 | 0.947 | > 16000 | 0.966 | > 20000 | 0.926 | > 20000 |
| Calu-3 (lung adenocarcinoma, adherent) | 0.666 | 1030 | 0.978 | > 2000 | 0.982 | > 10200 | 0.646 | 45.2 | 0.97 | > 1020 | 0.972 | > 10000 | 0.358 | 23.3 | 0.955 | > 16000 | 0.97 | > 20000 | 0.983 | > 20000 |
| Caov-4 (ovary, adherent) | 0.49 | 291 | 0.98 | > 2000 | 0.979 | > 10200 | 0.967 | > 256 | 0.98 | > 1020 | 0.961 | > 10000 | 0.774 | 607 | 0.967 | > 16000 | 0.943 | > 20000 | 0.819 | 19000 |
| D-392MG (glioma, adherent) | 0.685 | 1260 | 0.952 | > 2000 | 0.98 | > 10200 | 0.695 | 69.8 | 0.98 | > 1020 | 0.964 | > 10000 | 0.842 | > 1020 | 0.923 | > 16000 | 0.95 | > 20000 | 0.921 | > 20000 |
